The values that follow come from PubChem BioAssay (NCI).

Where “and” joins values, the source holds several entries; their conditions need not be identical. Identical values can stand only once.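 Where inhibition never reached the appropriate level, the endpoint shown equals the highest concentration tested. Otherwise, values were interpolated linearly from a five-concentration, 48-hour dose response in 96-well plates. Here, GI50 denotes the concentration required for 50% inhibition of growth. TGI: concentration producing complete growth inhibition.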 Bounds are passed on as bounds.

The experiment deals with NCI-H322M lung. Kind of experiment: NCI anticancer screen, dose series, 48 h.
In turn, `COc1cc(/C=C/C=C2\CC/C(=C\C=C\c3ccc(O)c(OC)c3)C2=O)ccc1O` showed a TGI greater than 100 µM.
On the same count and under the same terms, then `COc1cc2c(cc1OC)C(C(=O)c1cccc(OC)c1OC)C(=O)N(C)CC2` (stereo not given), with greater than 100 µM.
Still for that read-out and setting: then `Cc1ccccc1NC(=O)C1C(=O)N(c2ccccc2C)C(=O)/C1=N\NC(N)=S` (stereo not given), with greater than 100 µM; and `CSC(=S)N/N=C/c1nccc2ccccc12`, with 63.8 µM; and `COc1c(O)c2c(=O)cc(OC)c3c4c(OC)cc(=O)c5c(O)c(OC)c6c(c(c1C(C(C)O)C6C(C)O)c23)c54` (stereo not given), with 7.33 µM.
Molecule `O=C(/C=C/c1ccccc1)c1ccc(NCc2nc3ccccc3[nH]2)cc1` gave a TGI of 24.6 µM.
With `O=S(=O)(CCCl)c1ccc(Cl)cc1`, the GI50 is 16.3 µM and the TGI is 31.8 µM.
Regarding `Nc1nn2c(=O)c3ccccc3nc2s1`, the TGI was greater than 100 µM.
On to `Cc1ccc(/C=C2\Cc3c(C)cc(C)cc3C2=O)c(C(=O)O)c1`, for which the TGI is greater than 100 µM.
In the case of `COc1ccc(CN2C3CC2CN(c2ccc(-c4cc(OCC(C)(C)O)cn5ncc(C#N)c45)cn2)C3)cn1`, the GI50 is greater than 100 µM and the TGI was greater than 100 µM.
`O=c1[nH]c(=O)n(C2CC(O)C(CO)O2)cc1OCc1ccccc1` (stereo not given) yielded a TGI greater than 100 µM.
With `C=C(CNCCc1ccc(O)cc1)[C@@H]1CC[C@]2(COC3CCCCO3)CC[C@]3(C)[C@H](CC[C@@H]4[C@@]5(C)CCC(NCCO)C(C)(C)[C@@H]5CC[C@]43C)[C@@H]12` (stereo not given in full), the GI50 is 1.32 µM and the TGI was 2.61 µM.
Regarding `[O-]/[N+](=C\c1ccccc1OC(=S)S)c1ccc(Cl)cc1`, the TGI is greater than 100 µM.
The molecule `CC(=O)N1CCC2(c3ccccc3N(C(C)=O)C2c2ccc(O)cc2)C1C(=O)O` (stereo not given) had a TGI greater than 100 µM.
`CN(C)CCC(=O)/C=C\c1ccccc1`: the TGI is greater than 100 µM.
Same read-out and setting: as for `CCOP(=O)(/C=C\n1ccc(N)nc1=O)OCC`, the figure is greater than 100 µM.
Consider `C(=N\Nc1nnn(Cc2ccccc2)n1)/c1ccccc1`, for which the GI50 is greater than 100 µM and the TGI was greater than 100 µM.
Molecule `C\C(=N/N=C1/C(=C\N(C)C)C(=O)NC(=O)N1C)c1ccc(Cl)cc1` registered a TGI greater than 100 µM.
On the same count and under the same terms, as for `COC1=C(C)C(=O)c2c(c(COC(N)=O)c3n2CC(OC(C)=O)C3OC(C)=O)C1=O` (stereo not given), the figure is 2.74 µM.
The same measure, in the same setting: then `N/N=C1\C(=O)N(CCc2ccccc2)C(=O)C1C(=O)NCCc1ccccc1` (stereo not given), with greater than 100 µM.
Consider `CN(C)c1ccc(-c2ccc(-c3ccc(C(=N)N)cc3)s2)cc1`, for which the GI50 is 1.05 µM and the TGI was 2.37 µM.
`CO[C@]12C[C@H](CNC(=O)c3ccc[nH]3)O[C@H]1NC(=O)N2` registered a TGI greater than 100 µM.
The same measure, in the same setting: as for `C/C(=N\NC(=O)CC#N)c1c(O)cc(C)oc1=O`, the figure is greater than 100 µM; as for `O=c1cc(-c2ccccc2)oc2c(-c3cc(Cl)cc4c(=O)cc(-c5ccccc5)oc34)cc(Cl)cc12`, greater than 100 µM.
Still for that read-out and setting: as for `COC(=O)C1(C(=O)OC)CC(=O)c2cc3c(cc2-c2c(cc(OC)c(OC)c2OC)C1)OCO3`, the figure is greater than 211 µM; as for `CCC(=O)Nc1nc2c(ncn2C2OC(COC(=O)CC)C(OC(=O)CC)C2OC(=O)CC)c(=O)[nH]1` (stereo not given), greater than 100 µM.
Same read-out and setting: then `CCCCN(CC)CC(C(C)=O)c1c(O)c2ccccc2oc1=O` (stereo not given), with greater than 100 µM.
The molecule `CC(=O)O[C@H]1CCc2c(cc(N)c3c2C(=O)C[C@]2(C)C([C@H](C)CCCC(C)C)CCC32C)C1(C)C` (stereo not given in full) returned a TGI greater than 100 µM.
As to `COc1cc(NCCCCCCCNC(C)C)c2nccc(C)c2c1`, the GI50 was 15.1 µM and the TGI was 29.3 µM.
Molecule `CCOC(=O)c1cc2c3c(c(O)c(OC)c2s1)N(C(=O)c1cc2c4c(c(O)c(OC)c2s1)N(C(C)=O)CC4)CC3` displayed a TGI greater than 100 µM.
Same read-out and setting: then `CC(=O)OC1CCC2C3CCc4c(C)ccc(OS(=O)(=O)c5ccccc5)c4C3CCC12C` (stereo not given), with greater than 100 µM; and `O=c1cc(N2CCCC2)[nH]c(=O)n1-c1ccccc1`, with greater than 100 µM; and `CCCCN(CCCC)C(=O)/C(CC(=O)c1cccc2ccccc12)=N\NC(=O)c1cc2ccccc2cc1O`, with greater than 100 µM.
On the same count and under the same terms, then `COC(=O)/C(C#N)=C(/NCCN)Nc1ccccc1`, with greater than 100 µM; and `Cc1cnc2c(c1)C(=O)C1=C(C2=O)C2OC(=O)CC2OC1(C)C` (stereo not given), with 5.4 µM; and `Cc1c2ccccc2cc2ccc3oc([N+](=O)[O-])cc3c12`, with greater than 100 µM.
On the same count and under the same terms, then `O=c1c2cc(Br)ccc2nc(CCl)n1-c1ccc(O)c([N+](=O)[O-])c1`, with 30.3 µM; and `CCOC(=O)c1cn2c(n1)sc1cc(Cl)cc(Cl)c12`, with greater than 100 µM; and `N#CNC(N)=Nc1ccc(Cl)cc1`, with greater than 100 µM.
Molecule `NS(=O)(=O)c1cccc(NC(=S)NC(=O)Nc2ccc(Cl)c(Cl)c2)c1` displayed a TGI greater than 100 µM.
Same read-out and setting: then `COC(=O)C1(Cc2ccc3c(c2)CCC3)Cc2ccccc2C1`, with greater than 100 µM.
On the same count and under the same terms, then `NC(=S)NN/C=C(\C=Nc1ccccc1)[N+](=O)[O-]`, with greater than 100 µM; and `CC1(C)[C@H]2CC[C@@]13C(=O)N1C(=O)O[C@@H]([C@H]1Cl)C(Cl)(COCc1ccccc1)C(=O)OCCO[C@H]3C2` (stereo not given in full), with greater than 100 µM.
`CCCSc1nc(-c2ccc(OC)cc2)c(C#N)c(=O)n1C1OC(COC(C)=O)C(OC(C)=O)C(OC(C)=O)C1OC(C)=O` (stereo not given): the GI50 is > 100 µM and 20.9 µM; the TGI was > 100 µM and 56.9 µM.
The molecule `CCOC(=O)C(NC(=O)c1nc[nH]c1[N+](=O)[O-])C(C)C` (stereo not given) returned a TGI greater than 100 µM.
Turning to `O=C1CSC2=NC3=C(COC/C3=C\c3ccc(Br)cc3)C(c3ccc(Br)cc3)N12` (stereo not given), the TGI was greater than 100 µM.
`CCN(C(=O)/C=C/c1ccco1)c1ccccc1` had a TGI greater than 100 µM.
In the case of `CC(C)(C)OC(=O)NCCCCCCCn1c2c(c3ccccc3c1=O)C(=O)c1ccccc1-2`, the GI50 is greater than 100 µM and the TGI is greater than 100 µM.
As for `O=c1[nH]c(Nc2cccc(CO)c2)nc2nc[nH]c12`, the TGI is greater than 100 µM.
In the case of `O=[N+]([O-])c1ccc(Sc2c3ccccc3nc3cc(Cl)ccc23)cc1`, the GI50 is greater than 100 µM and the TGI is greater than 100 µM.
As for `CN1/C(=C\C=C\C2=[N+](C)c3ccccc3C2(C)C)C(C)(C)c2ccccc21`, the GI50 is 0.255 µM and the TGI was 3.14 µM.
`CCOC(=O)/C(O)=C1\C(=O)N(C)C(=O)C1c1cccc(OC)c1` (stereo not given): the TGI was greater than 100 µM.
Same read-out and setting: as for `COC(=O)c1cc(C#N)[nH]c1-c1cc(Br)cs1`, the figure is 47.5 µM.
`COC(=O)C1(C)Cc2cc(OC(C)=O)c(OC(C)=O)cc2N1` (stereo not given): the GI50 was greater than 54.5 µM and the TGI is greater than 93.8 µM.
The corresponding values for `COc1ccc2c(c1)/C(=C/c1cc(OC)c(OC)c(OC)c1)C(=O)N2` are 1.53 µM and greater than 100 µM.
As for `O=C(Nc1ccc(Cl)c(Cl)c1)NS(=O)(=O)c1cnccc1Oc1ccc(F)cc1`, the GI50 was 3.53 µM and the TGI came out at 73.5 µM.
Regarding `CN1CCN(c2cc3nsnc3c3nsnc23)CC1`, the TGI was greater than 10 µM.
Still for that read-out and setting: then `CCCCn1c(-c2ccc([N+](=O)[O-])cc2)cs/c1=N/N=C1\C(=O)Nc2ccc(Br)cc21`, with greater than 100 µM; and `CC(C)CCC1(CCN)C(=O)NC(=O)NC1=O`, with greater than 100 µM; and `C[n+]1c(-c2ccc(/C=C/C=N\NC(=O)c3ccc(C(=O)N/N=C\C=C\c4ccc(-c5cn6ccccc6[n+]5C)cc4)cc3)cc2)cn2ccccc21`, with greater than 100 µM.
Consider `O=S(=O)(NCCCNc1nccc(-c2c(-c3ccc(F)cc3)nc3sccn23)n1)c1ccc2ccccc2c1`, for which the GI50 was greater than 100 µM and the TGI was greater than 100 µM.
